B1: OR4K15 (parent)
chain: GUUAACGGUCAUAGGCCAUGGAAACUAGGAGCACCAUUUCGCUGCCAGUGAAGAAAUGAACAAAGAAAAUCUGGGCCAGGCAGGCAUCAAAAGAAAUAGUCUUGCGCUCAACCAGAAAGUCUGUAAUCAUUUUAAGGGUA

The source gives no read counts; variants with many changes may rest on few reads.

In this data set the parent is B1. The data set can be described thus: self-cleavage, relative activity (ratio to wild type); higher = more cleavage; in vitro, sequencing; the parent is a self-cleaving ribozyme.
On to GUUAACGGUCAUAGGCCAUGGAACCUAGGAGCGCCAUUUCGCUGCCAGUGAAGAAAUGAACAAAGAAAAUCUGGGCCAGGCAGGCAUCAAGAGAAGUAGUCUUGCGCUCAACCAGAAAGUCUGUAAUCAUUUUAAGGGUA [A24C A33G A91G A96G], for which the self-cleavage was determined as 0.9.

As to GUUAACGGUCAUAGGCCAUGGAACCGGGGAGCACCAUUUCGCUGCCAGUGAAGAAAUGAACAAAGAAAAUCUGGGCCAGGCAGGCAUCAAAAGAAAUAGCCUUGCGCUCAACCAGAAAGUCUGUAAUCACUUUAAGGGUA [A24C U26G A27G U100C U130C], the self-cleavage turned out to be 0.81. With GUUAACGGUCAUAGGCCAUGGAACCUAGGAGCACCAUUUCGCUGCCAGUGAAGAAAUGAACAAAGAAAAUCUGGGCCAGGCAGGCAUCAAAAGAAAUAAUCUUGCGCCCAACCAGAAAGUCUGUAAUCAUUUUAAGGGUA [A24C G99A U108C] the figure was 0.

Take GUUAACGGUCAUAGGCCAUGGAACCUAGGAGCACCAUUUCGCUGCCAGCGAAGAAAUGAACAAAGAAAAUCUGGGCCGGGCAGGCAUCAAAAGAAAUAGUCUUGCGCUCAACCAGAAAGUCUGUAAUCAUUUUAAGGGUA [A24C U49C A78G]: the self-cleavage is 0.18. For the variant GUUAACGGUCAUAGGCCAUGGAAGCUAGGGGCACCGUUUCGCUGCCAGUGAAGAAAUGAACAAAGAAAAUCAGGGCCAGGCAGGCAUCAAAAGAAGUAGUCUUGCGCCCAACCAGGAAGUCUGUAAUCAUUUUAAGGGUA [A24G A30G A36G U72A A96G U108C A116G], the self-cleavage was 0.02.

On to GUUAACGGUCAUAGGCCAUGGAACCUAGGAGCACCAUUCCGCUGCCAGUGAAGAAAUGAACAAAGAAAAUCUGGGCCAGGCAGGCAUCAAAGGAAAUAGUCUUGCGCCCAACCAGAAAGUCUGUAAUCAUUUUAAGGGUA [A24C U39C A92G U108C], for which the self-cleavage was determined as 0.04. For GUUAACGGUCAUAGGCCAUGGAACCUAGGAGCACCAUUUCGCUGCCAGUGAAGAAAUGAACAAAGAAAAUCUGGGCCAGGCAGGCAUCGAAAGAAAUAGUCUUGCGCUCAACCAGAAAGUCUGUGAUCAUUUUAAGGGUA [A24C A89G A125G], the self-cleavage stood at 1.12.

On to GUUAACGGUCAUAGGCCAUGGAAGCUCGGAGCACCAUCUCGCUGCCGGUGAAGAAAUGAACGAAGAAAAUCUGGGCCAGGCAGGCAUCAAAAGAAAUAGUCUUGCGCUCAACCAGAAAGUCUGUAAUCAUUUUAAGGGUA [A24G A27C U38C A47G A62G], for which the self-cleavage stood at 1.34.

Regarding GUUAACGGUCAUAGGCCAUGGAACCUAGGAGCACCAUUUCGCUGCCAGUGAAGAAGUGAACAAGGAAAAUCUGGGCCAGGCAGGCAUCAAAAGAAAUAGUCUUGCGCUCAACCAGAAAGUCUGUAAUCAUUUUAAGGGUA [A24C A56G A64G], the self-cleavage amounted to 1.49. Take GUUAACGGUCAUAGGCCAUGGAACCUAGGAGCACCAUUUCGCUGCCGGUGAAGAAAUGAACGAAGAAGAUCUGGGCCAGGCAGGCAUCAAAAGAAAUAGUCUUGCGCUCAACCAGGAAGUCUGUAAUCAUUUUAAGGGUA [A24C A47G A62G A68G A116G]: the self-cleavage came out at 0.36.

Consider GUUAACGGUCAUAGGCCAUGGAAGCUAGGUGCACCAUUUCGCUGCCAGUGAAGAAAUGAACAAAGAAAAUCUGGGCCGGGCAGGCAUCAAAAGAGAUAGUCUUGCGCUCAACCAGAAAGUCUGUAAUCAUUUUAAGGGUA [A24G A30U A78G A95G], for which the self-cleavage came to 0.3. The figure for GUUAACGGUCAUAGGCCAUGGAAGCUAGGGGCACCAUUGCGCUGCCAGUGAGGAAAUGAACAAAGAAAAUCUGGGCCAGGCAGGCAUCUAAAGAAAUAGUCCUGCGCUCAACCAGAUAGUCUGUAAUCAUUUUUAGGGUA [A24G A30G U39G A52G A89U U102C A117U A134U] is 0.6.

In the case of GUUAACGGUCAUAGGCCAUGGAACCUAGGAGCACCAUUUCGCUGCCAGUGAAGAAAUGAACAAAGAAGAUCUGGGCCAGGCAGGCACCAAAAGAAAUAGUCUUGCGCUCAACCAGAAAGUCUGUAAUCAUUUUAAGGGUA [A24C A68G U87C], the self-cleavage was determined as 1.28. With GUUAACGGUCAUAGGCCAUGGAACCUAGGAGCACCAUUUCGCUGCCAGUGAAGAAAUGAACAAAGAAAAUCUGGGCCAGGCAGGCAUCAAAGGAAAUAGUCUUGCGCUCAACCAGAAAGUCUGUAAACAUUUUAAGGGUA [A24C A92G U127A] the figure was 2.81; with GUUAACGGUCAUAGGCCAUGGAAGCUAGGAGCUCCAUUUCGCUGCCAGUGAAGAAAUGAACAAAGAAAAUCUGGGCCAGGCAGGCAUCAAAAGAAAUAGUCUUGCGCUCAACCAGAAAGUCUGUACUCAUUUUAAGGGUA [A24G A33U A126C], 0.94; with GUUAACGGUCAUAGGCCAUGGAACCUAGGAGCACCAUUUCGCUGCCAGUGAAGAAAUGAACAAAGAAAAUCUGGGCCAGGCAGGCAUCAAAAGAAAUAGUCUUGCGCCCAACCAGAAAGUCUGUAGUCAUUUUAAGGGUA [A24C U108C A126G], 0. The figure for GUUAACGGUCAUAGGCCAUGGAACCUAGGAGCACCAUUUCGCUGCCAGUGGAGAAAUGAACAAAGAAAAUCUGGGCCAGGCAGGCAUCGAAAGAAAUAGUCUUGCGCUCAACCAGAAAGUCUGUAAUCAUUUUAAGGGUA [A24C A51G A89G] is 0.6; for GUUAACGGUCAUAGGCCAUGGAAGCUAGGAGCCCCAUUUCGCUGCCAGUGAAGAAAUGAACAAAGAAAAUCUGGGCCAGGCAGGCGUCAAAAGAAAUAGUCUUGCGCUCAACCAGAAAGUCAGUAAUCAUUUUAAGGGUA [A24G A33C A86G U122A] it is 1.5. Take GUUAACGGUCAUAGGCCAUGGAACCUAGGAGCACCACUUCGCUGCCAGUGAAGAAAUGAGCAAAGAAGAUCUGGGCCAGGCAGGCAUCAAAAGAAAUAGUCUUGCGCUCAACCAGAAAGUCUGUAAUCAUUUUAAGGGUA [A24C U37C A60G A68G]: the self-cleavage is 1.53.

As for GUUAACGGUCAUAGGCCAUGGAACCUAGGAGCACCAUUUCGCUGCCAGUGAAGAAAUGAACAAAGAAAAUCAGGGCCAGGCAGGCAUCAAGAGAAAUAGUCUUGCGCUCAACCAGAAAGUCUGUAAUCAUUUUAAGGGUA [A24C U72A A91G], the self-cleavage amounted to 0.09.

The values are drawn from the RNAGym collection of RNA variant scans (doi:10.7554/elife.90254).
